Test results from ChEMBL document CHEMBL4888484, “Replenishing the malaria drug discovery pipeline: Screening and hit evaluation of the MMV Hit Generation Library 1 (HGL1) against asexual blood stage Plasmodium falciparum ,using a nano luciferase reporter read-out” (2022).
The whole screen tested about 4,800 compounds, of which about 420 (8.8%) showed an effect of 50% or more. This is one part of the list.

tested on: Plasmodium falciparum; assay: Confirmatory screen in NF54 nanoGlo assay, in single point, at 2uM, 72h; assay type: functional, Erythrocyte; settings: timepoint 72 hour

Going from `CCCNCc1cc(Cl)ccc1OC` to `COC(=O)CNCc1ccccc1Cl`, the “% Inhibition” value rises from -3% to -1%.

Going from `Cc1cccc(CNc2cc([C@H]3C[C@@H](N)C3)nc(N3CCCC3)n2)c1` to `O=c1[nH]c(N2CCCC2)nc2ccccc12`, the “% Inhibition” value falls from 22% to -4%.

Going from `CC1CN(c2nc(-c3ccccc3)nnc2-c2ccccc2)CC(C)O1` (stereo not drawn) to `Cc1nn(C)cc1C1C(C(=O)Nc2ccccc2)C(=O)CC(C)(O)C1C(=O)Nc1ccccc1` (stereo not drawn), the “% Inhibition” value falls from 9% to -4%.

First: Cc1cc(C)c(C)c(S(=O)(=O)N2CCn3c(nnc3[C@H]3CCN(C(C)C)C3)C2)c1C
Second: Cc1nc(C2CC2)nc(N2CCN(C(=O)N(C)C)CC2)c1Cc1ccccc1F
The “% Inhibition” value of the first is higher: -4% for the first, -8% for the second.

First: O=C(Nc1ccc(N2CCn3c(nc4ccccc43)C2)cc1)c1ccc(F)cc1
Second: Cc1ccc(C(=O)c2ccc(NC(=O)c3ncn(-c4ccc(Cl)cc4)n3)cc2)cc1
The “% Inhibition” value of the first is higher: 9% for the first, -6% for the second.

First: Cn1c(N2CCC[C@H]2c2ccc3c(c2)OCCCO3)c(C#N)c(=O)n(C)c1=O
Second: Cc1ccc(C)c(-n2cnc(=O)n2[C@H]2CCN(C3CC3)C2=O)c1
The “% Inhibition” value of the first is lower: 5% for the first, 46% for the second.

Compared with `Cc1nc2ccnn2cc1C(=O)Nc1ccc(CCC(C)C)cn1`, `Cc1cc(Cn2c(=O)n(Cc3ccccc3)c3ccncc32)on1` is higher in “% Inhibition” value: -5% for the first, -3% for the second.

First: CCc1c(C)nn(-c2nncn2N)c1C
Second: CCc1onc(C)c1NCc1cnc(C(C)(C)C)s1
The “% Inhibition” value of the first is higher: -1% for the first, -5% for the second.

First: CCOC(=O)c1cn([C@H]2CC(=O)N(c3ccccc3)C2=O)nn1
Second: CC(C)N(C(=O)c1cc(O)nc2ccccc12)C1CC1
The “% Inhibition” value of the first is higher: 6% for the first, -2% for the second.

First: COc1ccccc1N(CC(=O)NCCN1CCOCC1)S(=O)(=O)c1ccc(C)cc1
Second: COc1ccccc1-n1cnc2cc(C(=O)N3CCCC3)ccc2c1=O
The “% Inhibition” value of the first is higher: -1% for the first, -4% for the second.

First: CN(C)c1cccc(C(=O)N2CCN(c3ncc(F)cn3)C(=O)C2)c1
Second: COc1cccc(C(=O)NCC(=O)N2CC=C(c3ccccc3)C2)c1
The “% Inhibition” value of the first is lower: -2% for the first, 6% for the second.

Going from `Cc1ccc(NC(=O)c2c(Cl)cccc2Cl)c2c1CC(C)(C)O2` to `CCN(CC)CCN(C(=O)C1CCN(S(=O)(=O)c2ccc(Cl)cc2)CC1)c1nc2c(C)ccc(Cl)c2s1`, the “% Inhibition” value rises from -8% to 24%.

Going from `CN(C(=O)C1CC=CC1)c1ccc(NC(=O)C2CC=CC2)cc1Cl` to `O=C(NCCc1cnc2c(Cl)cnn2c1)[C@@H]1CC=CCC1`, the “% Inhibition” value rises from -11% to 3%.

Going from `O=C(CCc1nc(CN2CCN(S(=O)(=O)c3ccc(F)cc3)CC2)no1)N1CCCC1` to `O=C(CN1CCN(Cc2ccc(F)cc2)C1=O)NC1CCCCCCC1`, the “% Inhibition” value rises from -4% to 4%.

Compared with `C#C[C@H](C)OC(=O)c1cccc(Nc2cnccn2)c1`, `O=C(CC(O)c1cccc(F)c1)NCCC1CCCCO1` (stereo not drawn) is lower in “% Inhibition” value: 4% for the first, -1% for the second.

First: CCc1nc2c(C(=O)N3CCOc4c(C)cc(C)cc43)ccnc2[nH]1
Second: Cc1cc(C)cc(CN2CCCN(c3ccc(C)cc3NC(=O)Cc3ccc(F)cc3)C2=O)c1
The “% Inhibition” value of the first is higher: 72% for the first, 11% for the second.

Going from `CNC(=O)c1cc(Br)cnc1NC` to `CC(C)(C)NC(=O)c1ncc(Br)cc1Br`, the “% Inhibition” value falls from 3% to -2%.

Compared with `CC1CCCCC1OCCN1CCOCC1C(N)=O` (stereo not drawn), `O=C(Cn1nc(C2CC2)nc1C1CC1)N1CCOCC1` is higher in “% Inhibition” value: 1% for the first, 9% for the second.

Going from `COc1ccc(C(=O)c2c[nH]c(C(=O)NC[C@H]3CCCO3)c2)cc1` to `Cc1c[nH]c(=O)n1-c1ccc(C(=O)NCCc2cc(F)cc(F)c2)cc1`, the “% Inhibition” value falls from 2% to -1%.

Going from `Cc1cnccc1NCCNC1CCN(c2ccc3c(c2)CCC3)CC1` to `O=C(N[C@H]1CCN(CC2CCCC2)C1)c1nccc2cccnc12`, the “% Inhibition” value falls from 72% to -5%.

Going from `CC[C@@](C)(CCO)NCc1nccn1C` to `CC(O)CC(C)(C)CNC1CCCc2occc21` (stereo not drawn), the “% Inhibition” value falls from 1% to -12%.

Going from `CCOCC(=O)Nc1ccc(OC(F)(F)F)cc1` to `NC(=O)c1ccc(C(F)(F)F)n(C[C@H](O)c2cc(Cl)ccc2Cl)c1=O`, the “% Inhibition” value rises from -17% to 63%.

First: CC(C)c1ccc(N2C(=O)[C@H](CC(=O)N3CCN(C)CC3)N=C2O)cc1
Second: C[C@H](Oc1ccc(F)cc1)C(=O)N1CCC(c2nc3cc(Cl)ccc3s2)CC1
The “% Inhibition” value of the first is higher: -2% for the first, -4% for the second.

Going from `CC(C)n1cc(S(=O)(=O)Nc2cc(F)ccc2Cl)c2cccnc21` to `Cc1c(NC(=O)c2ccc(-c3cccc(F)c3)o2)cccc1-c1nc2ncccc2o1`, the “% Inhibition” value falls from 13% to -8%.

First: Cc1nc(C(=O)NC[C@H]2CN(c3nncs3)CCO2)c(C)s1
Second: C[C@H]1Cc2cc(C(=O)NCc3nc(C(F)(F)F)n[nH]3)ccc2O1
The “% Inhibition” value of the first is lower: -9% for the first, 39% for the second.

Going from `O=c1[nH]c2ccsc2c(=O)n1CCc1ccccc1` to `CC(C)(C)NC(=O)CCc1ccccc1`, the “% Inhibition” value rises from -16% to -7%.

Compared with `NCc1ccc(O)c(Br)c1`, `Cc1nnc(COC(=O)c2cc3ccc(C(C)(C)C)cc3[nH]2)o1` is higher in “% Inhibition” value: 2% for the first, 3% for the second.

First: CC1(C)CC2=CC3(C)CC(C)(C)CC4(C3)C2=C(C1)N(c1ccccc1)C(=O)N4C(=O)c1ccccc1 (stereo not drawn)
Second: CN1CC(c2ccccc2Cl)C2(COc3ccccc3C2=O)C12C(=O)Nc1ccccc12 (stereo not drawn)
The “% Inhibition” value of the first is lower: -15% for the first, 3% for the second.

Compared with `COc1ccc(-c2cc3c(N4CCN(Cc5ccc6c(c5)OCO6)CC4)nccn3n2)cc1OC`, `Cc1ccc(Oc2cc(C#N)c(C#N)cc2N2CCOCC2)cc1C` is lower in “% Inhibition” value: -2% for the first, -6% for the second.

Going from `O=C1C2C3C=CC(C3=C(c3ccccc3)c3ccccc3)C2C(=O)N1CCO` (stereo not drawn) to `Cc1ccc(-n2c(=O)c3ccccc3n(CC(=O)NCc3cccnc3)c2=O)cc1Cl`, the “% Inhibition” value falls from -5% to -9%.

Going from `CC(C)C(CNCc1nnn(C)n1)C(C)C` to `Cc1nn(C)cc1-c1n[nH]cc1Br`, the “% Inhibition” value rises from -4% to -2%.

First: CC[n+]1ccc(-c2ncc(-c3ccc(C(C)(C)C)cc3)o2)cc1
Second: C[C@@H](N)C(=O)N1CCc2cc(-c3ccccc3)ccc21
The “% Inhibition” value of the first is higher: 63% for the first, 5% for the second.

`Cc1ccc(NC(=O)N2CCC(C(NC(=O)c3ccccc3)C(=O)N3CCCCC3C)CC2)cc1` (stereo not drawn) and `Cc1cc(N2CCC(O)CC2)nc(N2CCC(O)CC2)c1C#N` are the same in “% Inhibition” value: -4% for the first, -4% for the second.

Going from `Cc1ccc(CN2CCS(=O)(=O)CC2)o1` to `Nc1ncc(C(=O)N2CCC3(CCCCCC3)C2)s1`, the “% Inhibition” value rises from -11% to 98%.
